What all share (assay type): biochemical
The nature of test [1]: 4-MUL assay with and without cellobiose (Example 1). As to conditions: for product tolerance in library screening (4-MUL): 60-member BD29555 library, presence and absence of 250 mg/L (730 mM) cellobiose, gluconolactone. The procedure:
This assay measures the activity of CBH I on the fluorogenic substrate 4-MUL (also known as MUL). Assays were run in a costar 96-well black bottom plate, where reactions were initiated by the addition of 4-MUL to enzyme in buffer (2 mM 4-MUL in 200 mM MES pH 6). Enzymatic rates were monitored by fluorescent readouts over five minutes on a SPECTRAMAX™ plate reader (ex/em 365/450 nm). Data in the linear range was used to calculate initial rates (Vo).
(§1) Tolerance to cellobiose (or inhibition caused by cellobiose) was tested in two ways in the CBH I assays. A direct-dose tolerance method can be applied to all of the CBH I assays (i.e., 4-MUL, PASC, and/or bagasse assays), and entails the exogenous addition of a known amount of cellobiose into assay mixtures. A different indirect method entails the addition of an excess amount of β-glucosidase (BG) to PASC and bagasse assays (typically, 1 mg β-glucosidase/g solids loaded). BG will enzymatically hydrolyze the cellobiose generated during these assays; therefore, CBH I activity in the presence of BG can be taken as a measure of activity in the absence of cellobiose. Furthermore, when activity in the presence and absence of BG are similar, this indicates tolerance to cellobiose.
The wild type CBH I polypeptide BD29555 was mutagenized to identify variants with improved product tolerance. A small (60-member) library of BD29555 variants was designed to identify variant CBH I polypeptides with reduced product inhibition. This product-release-site library was designed based on residues directly interacting with the cellobiose product in an attempt to identify variants with weakened interactions with cellobiose from which the product would be released more readily than the wild type enzyme. The 60-member evolution library contained wild-type residues and mutations at positions R273, W405, and R422 of BD29555 (SEQ ID NO:1), and included the following substitutions: R273 (WT), R273Q, R273K, R273A, W405 (WT), W405Q, W405H, R422 (WT), R422Q, R422K, R422L, and R422E (4 variants at position 273×3 variants at position 405×5 variants at position 422 equals 60 variants in total). All members of the library were screened using the 4-MUL assay in the presence and absence of 250 mg/L cellobiose and using gluconolactone to inhibit any BG activity. […] Due to low expression, other variants were not tested further.
Cellobiose dose response curves of the wild-type and R273K/R422K variant of BD29555 were obtained during the 4-MUL assay. Enzyme rates (Vo) were measured in the presence of different concentrations of cellobiose (200 mM MES pH 6, 25° C.). Rates were measured in quadruplicate.

Assay in test [2]: as above
Test [3] in a line: PASC assay, cellobiose dose-response (Example 1). As to conditions: FIG. 3. The method, then: This assay measures the activity of CBH I using PASC as the substrate. During the assay, the concentration of PASC is monitored by a fluorescent signal derived from calcofluor binding to PASC (ex/em 365/440 nm). The assay is initiated by mixing enzyme (15 μl) and reaction buffer (85 μl of 0.2% PASC, 200 mM MES, pH 6), and then incubating at 35° C. while shaking at 225 RPM. After 2 hours, one reaction volume of calcofluor stop solution (100 μg/ml in 500 mM glycine pH 10) is added and fluorescence read-outs obtained (ex/em 365/440 nm).
as §1

Test [4] in a line: Saccharification assay (bagasse assay) with and without β-glucosidase (Example 1). The method, then:
This assay measures the activity of CBH I on bagasse, a lignocellulosic substrate. Reactions were run in 10 ml vials with 5% dilute acid pretreated bagasse (250 mg solids per 5 ml reaction). Each reaction contained 4 mg CBH I enzyme/g solids, 200 mM MES pH 6, kanamycin, and chloramphenicol. Reactions were incubated at 35° C. in hybridization incubators (Robbins Scientific), rotating at 20 RPM. Time points were taken by transferring a sample of homogenous slurry (150 μl) into a 96-well deep well plate and quenching the reaction with stop buffer (450 μl of 500 mM sodium carbonate, pH 10). Time point measurements were taken every 24 hours for 72 hours.
as §1

[5] abbreviates: BD29555 and variants, [(activity with cellobiose)/(activity without cellobiose)]*100, 250 mg/L cellobiose.
Where [6] appears, read: BD29555 and variants, [(activity without BG)/(activity with BG)]*100, percent conversion of glucan after 72 hours.

Where a chain is given by its changes, count along the chain named. Names may count otherwise. “Also recorded” adds a separate entry of the source.

B1: R273A: BD29555 (SEQ ID NO:1) library variant with substitution R273A (protein)
chain: MSALNSFNMYKSALILGSLLATAGAQQIGTYTAETHPSLSWSTCKSGGSCTTNSGAITLDANWRWVHGVNTSTNCYTGNTWNTAICDTDASCAQDCALDGADYSGTYGITTSGNSLRLNFVTGSNVGSRTYLMADNTHYQIFDLLNQEFTFTVDVSHLPCGLNGALYFVTMDADGGVSKYPNNKAGAQYGVGYCDSQCPRDLKFIAGQANVEGWTPSSNNANTGLGNHGACCAELDIWEANSISEALTPHPCDTPGLSVCTTDACGGTYSSDAYAGTCDPDGCDFNPYRLGVTDFYGSGKTVDTTKPITVVTQFVTDDGTSTGTLSEIRRYYVQNGVVIPQPSSKISGVSGNVINSDFCDAEISTFGETASFSKHGGLAKMGAGMEAGMVLVMSLWDDYSVNMLWLDSTYPTNATGTPGAARGSCPTTSGDPKTVESQSGSSYVTFSDIRVGPFNSTFSGGSSTGGSSTTTASGTTTTKASSTSTSSTSTGTGVAAHWGQCGGQGWTGPTTCASGTTCTVVNPYYSQCL
modifications: Obtained from an Environmental Sample
B1: the “product tolerance in library screening (4-MUL)” value (shortened to “product tolerance”) in test [1] is “enhanced product tolerance”.

B2: R273Q: BD29555 (SEQ ID NO:1) library variant with substitution R273Q (protein)
chain: B1 chain with A273Q
modifications: Obtained from an Environmental Sample
Regarding B2, the “product tolerance” value in test [1] is “enhanced product tolerance”.

B3: BD29555: wild type CBH I polypeptide BD29555 (SEQ ID NO:1), species of origin unknown (protein)
chain: B1 chain with A273R
modifications: Obtained from an Environmental Sample
For B3, the “Tolerance to 250 mg/L cellobiose % Activity in 4-MUL Assay (+/−Cellobiose)” value in test [2] (setting [5]) came to 25%; in test [2] (T. reesei CBH I variants, activity with 250 mg/L cellobiose relative to without cellobiose), 23%. Besides, in test [3], the “IC50 of cellobiose (PASC assay)” value stood at 2200 µg/mL. Also, the “cellobiose concentration at which inhibition starts (PASC assay)” value in test [3] was “around 1 g/L”. In addition, the “Tolerance to cellobiose accumulation % Activity in Bagasse Assay (+/−BG)” value in test [4] (setting [6]) is 60%; in test [4] (T. reesei CBH I variants, activity without β-glucosidase (BG) relative to with BG), 74%. Also, the “IC50 of cellobiose (4-MUL assay)” value in test [1] (200 mM MES pH 6, 25° C., FIG. 1A) worked out at 60 µg/mL.

B4: R273K/R422K: BD29555 with the substitutions R273K/R422K (correspond to R268K/R411K of T. reesei CBH I) (protein)
chain: B1 chain with A273K, R422K
modifications: Obtained from an Environmental Sample
Regarding B4, the “Tolerance to 250 mg/L cellobiose % Activity in 4-MUL Assay (+/−Cellobiose)” value in test [2] (setting [5]) amounted to 95%. Further, the “inhibition by cellobiose (PASC assay)” value in test [3] (10 g/L cellobiose) is reported as “little inhibition”. Moreover, in test [4] (setting [6]), the “Tolerance to cellobiose accumulation % Activity in Bagasse Assay (+/−BG)” value is 84%. For the same molecule, in test [4] (compared with wild type), the “sensitivity to cellobiose in bagasse assay (absence vs. presence of BG)” value is listed as “less sensitive to the presence of cellobiose than the wild type”. Besides, in test [1] (200 mM MES pH 6, 25° C., FIG. 1B), the “tolerance to cellobiose in dose-response (4-MUL assay)” value is “tolerant to cellobiose up to 250 mg/L”. For the same molecule, the “product tolerance” value in test [1] is “enhanced product tolerance; also recorded: greatest activity, expression, and cellobiose tolerance”.

For the origin of these results see patent US20140287471A1, “VARIANT CBH I POLYPEPTIDES WITH REDUCED PRODUCT INHIBITION” (BP CORPORATION NORTN AMERICA INC., priority 2011, published 2014).
